Whole data set: some 110,000 compounds, median “z-score” near -0.1, cut for the highest 2% near 2. This is one part of the list. The source made the active and inactive calls.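 How the source made its calls: active means z-score in the third read window above 3 or below -3; inactive means the rest.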

The assay deals with Metabotropic glutamate receptor 8 (Rattus norvegicus) (UniProt P70579). In words: rat mGluR8 modulators via GIRK flux, primary screen, cell-based, thallium flux, HTS (AID 488969). The conditions noted are these: HEK293 rat mGluR8, GIRK (G protein-gated inwardly rectifying potassium channel) thallium flux, FluoZin2; at 10 µM; stronger effect = higher value; submaximal glutamate (EC20) added with thallium.
UniProt P70579, sequence (P70579 whole entry, looked up): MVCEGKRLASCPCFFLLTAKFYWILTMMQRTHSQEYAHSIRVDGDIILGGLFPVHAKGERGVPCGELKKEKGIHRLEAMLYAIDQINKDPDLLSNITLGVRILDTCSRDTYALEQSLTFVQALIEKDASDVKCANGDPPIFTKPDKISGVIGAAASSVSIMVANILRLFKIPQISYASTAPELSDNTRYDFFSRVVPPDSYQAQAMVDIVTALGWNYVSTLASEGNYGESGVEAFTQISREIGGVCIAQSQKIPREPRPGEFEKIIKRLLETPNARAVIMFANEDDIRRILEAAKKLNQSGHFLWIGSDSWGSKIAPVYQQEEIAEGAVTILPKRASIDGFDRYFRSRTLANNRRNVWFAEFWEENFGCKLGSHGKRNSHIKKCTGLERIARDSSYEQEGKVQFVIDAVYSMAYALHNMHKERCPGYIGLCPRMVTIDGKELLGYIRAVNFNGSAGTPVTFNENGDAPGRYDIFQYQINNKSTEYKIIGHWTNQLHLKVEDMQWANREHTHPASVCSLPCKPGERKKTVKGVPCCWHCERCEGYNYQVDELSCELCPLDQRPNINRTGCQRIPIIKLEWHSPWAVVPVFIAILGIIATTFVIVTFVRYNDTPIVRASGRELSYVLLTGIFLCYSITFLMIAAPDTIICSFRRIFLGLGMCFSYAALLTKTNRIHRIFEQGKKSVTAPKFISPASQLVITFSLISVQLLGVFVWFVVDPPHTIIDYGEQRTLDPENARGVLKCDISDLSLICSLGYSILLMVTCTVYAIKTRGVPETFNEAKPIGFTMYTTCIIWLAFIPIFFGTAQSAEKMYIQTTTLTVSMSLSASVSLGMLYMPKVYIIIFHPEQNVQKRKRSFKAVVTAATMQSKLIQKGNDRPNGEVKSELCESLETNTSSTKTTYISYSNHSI
`Cc1cc(-n2c(C)cc(C(=O)COC(=O)CN=C3NS(=O)(=O)c4ccccc43)c2C)no1` showed a z-score of 0.00163.
`CCn1cc(C(=O)N2CC(C)CC(C)C2)c(=O)c2cc(S(=O)(=O)N3CCOCC3)ccc21` (stereo not drawn) had a z-score of -0.0127.
The same measure for `CCOC(=O)c1ccc(NC(=O)C2C3CCC(C3)C2C(=O)O)cc1` (stereo not drawn): 0.472; for `Fc1cccc(Cl)c1Cn1nnc2c(N3CCC4(CC3)OCCO4)ncnc21`: 0.0505; for `CCOC(=O)N1CCN(C2=NC3(CCCCC3)C(C#N)C(=O)N2)CC1` (stereo not drawn): 0.49.
Compound `CC(C)N1CCc2[nH]c(=S)[nH]c(=O)c2C1` showed a z-score of -0.199.
`CCOC(=O)c1sc(NC(=O)c2cccs2)nc1C`: the z-score stood at 0.881.
As for `COc1ccc(C2CC(C(F)(F)F)n3ncc(C(=O)NCC4CCCO4)c3N2)cc1OC` (stereo not drawn), the z-score was -0.582.
For the compound `O=C(NC1C(=O)NNC1c1ccccc1)c1ccc(F)cc1` (stereo not drawn), the z-score turned out to be 0.46.
The compound `O=C(O)c1ccc(COc2ccccc2/C=C2/NC(=O)N(c3cccc(Cl)c3)C2=O)cc1` registered a z-score of -0.502.
As to `COc1ccc(CCNC(=O)CSc2nnc(CNC(=O)c3ccccc3F)o2)cc1OC`, the z-score is -0.112.
In the case of `CCCOc1c(Br)cc(C(=O)NCC)cc1OC`, the z-score was 0.0209.
As to `CCc1nn2c(N)c(/C=C3\C=Nc4ccccc43)c(=O)nc2s1`, the z-score is -0.53.
The same measure for `Cc1ccccc1Cn1ccc(NC(=O)c2cnn3c(C(F)(F)F)cc(-c4ccco4)nc23)n1`: -1.34; for `Cc1ccc(S(=O)(=O)Nc2cc(C(=O)O)ccc2N2CCCCC2)cc1`: 0.161; for `Cc1cc(C)n(-c2nc3ccccc3c(=O)n2OCC(=O)N(C)C)n1`: 0.0136.
`CC1CCCCN1Cc1nc2c(c(=O)n(C)c(=O)n2C)n1CCCc1ccccc1` (stereo not drawn) registered a z-score of -0.392.
The compound `CN(CC(=O)Nc1ccccc1N1CCOCC1)S(=O)(=O)c1ccc(F)cc1` returned a z-score of 0.0842.
Regarding `Fc1ccc2c(c1)C(c1ccncc1)=NNC(c1ccc(Br)cc1)=N2`, the z-score was -0.256.
Next, `Cc1cccc(NC(=S)NC2CCCC2)c1`: 0.36; `O=C(NC1CCCCC1)N1CCN(c2ncccn2)CC1`: 0.458.
`Cc1noc(C)c1CSc1ccc2ccccc2n1` gave a z-score of -0.787.
In turn, `Cn1c(=O)c2c(SC3CCCC3)nc(C3CC3)nc2n(C)c1=O` came in with a z-score of -0.0445.
In turn, `Cc1cccc(OCc2nc(C)cc(=O)[nH]2)c1` gave a z-score of 0.559.
`CC(C)CC(=O)c1c[nH]c(C(=O)NCCCN2CCOCC2)c1` showed a z-score of -0.72.
Next, `CCc1cc(/C(Cc2ccccn2)=N\O)c(O)cc1O`: -0.234; `Cn1c(CSCc2ccc(F)cc2)nnc1SCC(=O)Nc1nccs1`: 0.274.
Take `Cc1cc(C(=O)COC(=O)Cc2n[nH]c(=O)c3ccccc23)c(C)n1-c1ccc2c(c1)OCCO2`: the z-score is -0.104.
`CC1CCCC(C)N1S(=O)(=O)c1ccc(NC(=O)CCn2cnc3ccccc3c2=O)cc1` (stereo not drawn) yielded a z-score of -0.218.
For the compound `CCC(C)NC(=O)c1cc(Cl)ccc1OC` (stereo not drawn), the z-score was -0.0546.
For the compound `COc1ccc(NC(=S)NN2CCN(C)CC2)cc1`, the z-score is -0.193.
`O=C(COC(=O)Cn1cnc2ccccc2c1=O)Nc1ccc(Cl)c(C(F)(F)F)c1` displayed a z-score of -0.01.
As to `NC(=O)C1(c2ccccc2)CCOCC1`, the z-score was found to be 0.0345.
Next, `Cc1c(S(=O)(=O)N2CCN(C(=O)c3ccco3)CC2)c(=O)n(C)c(=O)n1C`: -0.147; `CCOC(=O)c1c(-c2ccncc2)csc1N`: 0.423.
In turn, `CCOC(=O)C1=C(CSc2nc3ccccc3s2)NC(=O)NC1c1cc(C)ccc1C` (stereo not drawn) registered a z-score of -0.197.
Next, `CCOCc1nnc(NC(=O)CSc2ccccc2)s1`: 0.394.
On to `O=C(Nc1nnc(-c2ccc3c(c2)CCCC3)o1)c1ccccc1`, for which the z-score is active: 15.5.
Compound `Cc1nc2scc(-c3cccs3)c2c(=O)n1-n1cccc1` showed a z-score of 0.824.
Consider `O=C(O)Cc1ccc2c(c1)N(S(=O)(=O)c1cccc(C(F)(F)F)c1)CC(C(=O)O)O2` (stereo not drawn), for which the z-score is -0.121.
Turning to `N#Cc1c(SCC(=O)OCc2ccccc2)nsc1SCC(=O)OCc1ccccc1`, the z-score was determined as 0.0135.
The same measure for `Cc1ccc(C(=O)NCCSCc2ccc(Cl)cc2Cl)cc1[N+](=O)[O-]`: 0.0726; for `COc1ccc(N=C2C(=Nc3ccc(OC)cc3)N(c3ccc(OC)cc3)C(=S)N2c2ccccc2)cc1`: -0.0732; for `Cc1n[nH]c(=S)c2nn(-c3ccccc3F)c(C)c12`: -0.144.
With `COc1ccc(C2Nc3ccccc3C(=O)N2c2ccc(F)cc2)cc1Cn1nnc2ccccc21` (stereo not drawn), the z-score was -0.647.
Next, `O=C(CSc1nnnn1-c1ccccc1)N1N=CCC1c1ccccc1` (stereo not drawn): -0.496; `COc1ccc(NC(=O)CN2CCN(CC(=O)Nc3ccccc3F)CC2)cc1OC`: 0.797; `O=C(c1ccc(S(=O)(=O)N2CCOCC2)cc1)N1CCN(C2=NS(=O)(=O)c3ccccc32)CC1`: -0.0984.
The same measure for `N/C(=N\OC(=O)Cc1ccc(Cl)cc1)c1cccnc1`: -0.232.
As to `CCOC(=O)c1ccc(N2CC(O)=C(c3nc4ccccc4c(=O)[nH]3)C2=N)cc1`, the z-score was -0.431.
In turn, `Cc1ccc(N(C(=O)Nc2ccccc2)C2=NCC(C)S2)cc1` (stereo not drawn) came in with a z-score of -0.166.
In turn, `CCOC(=O)C(CSCC(=O)c1ccc(Cl)cc1)NC(=O)OC(C)(C)C` (stereo not drawn) had a z-score of -0.409.
In turn, `OC(c1ccccc1)C1CN(Cc2ccccc2)CCC1(O)c1ccccc1` (stereo not drawn) displayed a z-score of 1.94.
Take `O=C(CCCC(=O)OCC(=O)NC1CCCC1)Nc1ccccn1`: the z-score came to 0.649.
As for `CCC(=O)Nc1ccc(-c2nnc(SCC(=O)N3CCCCC3)n2C)cc1`, the z-score was 0.0527.
On to `CC1(C)C2CCC1(C)C(NC1=NCCC1)C2` (stereo not drawn), for which the z-score is -0.924.
The compound `CC1Cc2cc(/C(O)=C3/C(=O)C(=O)N(CCCN(C)C)C3c3ccncc3)ccc2O1` (stereo not drawn) displayed a z-score of 0.147.
Compound `Cc1nc2ccccn2c1C(=O)CSc1ccc(Cl)cc1Cl` yielded a z-score of -0.488.
Regarding `COC(=O)c1cc(NCc2cccs2)ccc1N1CCOCC1`, the z-score was -0.336.
Take `CCOc1ccc(N(CC(=O)O)S(=O)(=O)c2ccc(F)cc2)cc1`: the z-score came to 1.12.
For `Cc1oc(-c2ccccc2)cc1C(=O)Nc1cccc2ccccc12`, the z-score was -0.055.
Next, `Cc1ccc2oc(-c3cccc(NC(=S)NC(=O)c4cccs4)c3)nc2c1`: active: 3.78; `CCOc1ccc(NC(=O)N2CCC(c3ccc(C)cc3)C2)cc1` (stereo not drawn): -0.0972; `CC1CCN(S(=O)(=O)c2ccc(C(=O)Nc3ccccc3-c3nc4ccccc4[nH]3)cc2)CC1`: -0.163.
`O=C(/C=C/c1ccccc1)N/C(=C/c1ccccc1)C(=O)Nc1ccccc1O` returned a z-score of -0.044.
Next, `Cc1ccc(Sc2ncccc2COC(=O)Nc2ccccc2)cc1`: -0.0605.
For `CCOC(=O)C1C(=O)N(C(=O)c2ccc(OC)cc2)CC1c1ccccc1` (stereo not drawn), the z-score is -0.335.
As to `O=C(O)c1ccc(C2SCC(=O)N2Cc2ccccc2)cc1` (stereo not drawn), the z-score was 0.275.
Next, `C/C(=C1/SC(N2CCOCC2)=NC1=O)c1ccc(Cl)cc1`: -0.254; `COc1ccc2c(-c3ccccc3)cc(SCC(=O)NC3CCS(=O)(=O)C3)nc2c1` (stereo not drawn): -0.06; `COc1cc(S(=O)(=O)Nc2ccc(C)cc2)ccc1N=Cc1c(C)[nH]n(-c2ccc(C)cc2)c1=O`: -0.0253.
The same measure for `N/C(=N\OCC(=O)Nc1ccccc1)c1nonc1N`: 0.0337; for `CCC(C)(C)NC(=O)C(c1ccncc1)N(Cc1ccc(C)cc1)C(=O)c1csnn1` (stereo not drawn): 0.742; for `O=C(COc1ccc(Cl)cc1Cl)NCCCn1ccnc1`: 0.0498.
For `CCOC(=O)c1ccc2c(c1)nc(SCC(=O)N1CCCCC1)n2CC`, the z-score stood at 0.447.
In turn, `CCOC(=O)/C(=C\Nc1ccc(OC(F)(F)F)cc1)Sc1ncc(C(F)(F)F)cc1Cl` came in with a z-score of -0.436.
The same measure for `Cc1cc(NC(=O)CSc2nc(CC(C)(C)C)nc3c2c(=O)n(C)c(=O)n3C)no1`: -0.0135.
The compound `N#Cc1sc2nc(N3CCCCC3)c3c(c2c1N)CCCC3` came in with a z-score of -0.0906.
On to `Cc1ccc(C(=O)c2ccc([N+](=O)[O-])cc2)c(C)c1`, for which the z-score is -0.106.
For the compound `Cc1nc2ccc(S(=O)(=O)NCC(=O)N3CCN(c4ccccn4)CC3)cc2s1`, the z-score was -0.164.
Turning to `COc1ccccc1N1CCN(C(=O)c2ccc3nc(-c4ccco4)c(-c4ccco4)nc3c2)CC1`, the z-score was -0.672.
`Cc1nc(CS(=O)(=O)c2ccccc2)cc(N2CCOCC2)n1` returned a z-score of -0.194.
`CCOC(=O)Cn1c(=N)n(Cc2ccccc2)c2ccccc21` gave a z-score of 0.46.
On to `O=C(NC(Cc1ccccc1)C(=O)O)/C(=C\c1ccc(F)cc1)NC(=O)c1ccccc1` (stereo not drawn), for which the z-score was -0.491.
As to `O=C(Nc1cccc2ncccc12)c1cccc(F)c1`, the z-score is -0.113.
For the compound `CCCCOP(=O)(OCCCC)C1(NS(=O)(=O)c2ccccc2)C=CC(=O)c2ccccc21` (stereo not drawn), the z-score was -0.186.
With `O=C1c2cc(S(=O)(=O)NCCCO)ccc2-c2ccc(S(=O)(=O)NCCCO)cc21`, the z-score amounted to 0.152.
For `O=[N+]([O-])c1cc(-c2nnc(-c3ccccc3)o2)ccc1Oc1ccc(Cl)cc1`, the z-score was -0.127.
The same measure for `CC(C(=O)NC(=O)NC1CCCCC1)N1CCN(C(c2ccccc2)c2ccccc2)CC1` (stereo not drawn): 0.532; for `COc1ccccc1NC(=O)N1CCN(c2cccc(C(F)(F)F)c2)CC1`: -0.14; for `CCCCOc1ccc(C2=NNC(=O)CC2)cc1`: -0.538.
Compound `O=C(Nc1ccccc1N1CCOCC1)c1cccs1` displayed a z-score of 0.511.
Compound `C=CCN=C1SC(C)C(=O)N1S(=O)(=O)c1ccccc1` (stereo not drawn) had a z-score of 0.65.
Regarding `CCc1c(C)sc(NC(=O)c2cnn3cccnc23)c1C#N`, the z-score stood at 0.33.
Next, `COc1ccc(C(=O)Nc2ccc3c(c2)Cc2ccccc2-3)cc1`: 0.0325; `CC12CN(Cc3ccccc3)CC(C)(CN(Cc3ccccc3)C1)C2=NO`: 2.4; `COc1ccc(C(=O)OC(C)C(=O)Nc2cc(C(F)(F)F)ccc2Cl)c(OC)c1OC` (stereo not drawn): -0.379.
`Cc1nnc(NC(=O)CN2C(=O)c3ccccc3S2(=O)=O)s1` displayed a z-score of 1.88.
Turning to `O=C(CNC(=O)C1CCCCC1)Nc1cc(Cl)ccc1Cl`, the z-score is -0.102.
Take `CCOC(=O)c1ccc(NC2=CC(=O)C(=O)c3ccccc32)cc1`: the z-score was -0.548.
Take `C#CC(=O)N(c1cc(OC)ccc1OC)C(C(=O)NC1CCCC1)c1cccs1` (stereo not drawn): the z-score is -0.0546.
With `COc1ccc(NC(=O)Cc2c(F)cccc2Cl)c(OC)c1`, the z-score was -0.567.
As for `COc1ccc(NC(=O)NCc2ccccn2)cc1`, the z-score amounted to 0.00957.
Turning to `Cc1[nH]c2ccccc2c1C(=O)CSc1nncn1C`, the z-score was -0.111.
For `CCOC(=O)CSc1nnc(-c2cccnc2)n1Cc1ccccc1`, the z-score was 0.462.
In turn, `S=C(NCc1ccncc1)Nc1ccc(Cl)c(Cl)c1` yielded a z-score of 1.78.
For `CCCCOC(=O)C(C)Oc1ccc(=O)n(-c2ccccc2)n1` (stereo not drawn), the z-score was -0.164.
With `Cc1onc(-c2ccccc2)c1C(=O)N1CCN(CCc2ccccc2)CC1`, the z-score is -0.591.

Source of the values: PubChem BioAssay AID488969 (Vanderbilt High Throughput Screening Facility, 2010).
